Data published in the supplement of paper PMC8728848.
Some of the results follow.

Assays:
Assay in all cases: glycan array binding signal (z-score within array); higher = stronger binding
Conditions in all cases: glycan notation: IUPAC condensed, linker removed
[1] = biological target: GlcNAc(b1-3)Gal(b1-4)GlcNAc(b1-3)Gal(b1-4)GlcNAc(b1-3)Gal(b1-4)GlcNAc(b1-3)Gal(b1-4)GlcNAc(b1-2)[GlcNAc(b1-3)Gal(b1-4)GlcNAc(b1-3)Gal(b1-4)GlcNAc(b1-3)Gal(b1-4)GlcNAc(b1-3)Gal(b1-4)GlcNAc(b1-6)]Man(a1-6)[GlcNAc(b1-3)Gal(b1-4)GlcNAc(b1-3)Gal(b1-4)GlcNAc(b1-3)Gal(b1-4)GlcNAc(b1-3)Gal(b1-4)GlcNAc(b1-2)Man(a1-3)]Man(b1-4)GlcNAc(b1-4)[Fuc(a1-6)]GlcNAc
In short: (§1)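 The Consortium for Functional Glycomics database supplied 3228 glycan arrays, of which those lacking an available protein sequence were dropped. The binding signal, a within-array Z-score, was averaged across arrays of the same protein sequence and across linkers. Negative scores can be read as non-binding.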

[2] = biological target: GlcNAc(b1-3)Gal(b1-4)GlcNAc(b1-3)Gal(b1-4)GlcNAc(b1-3)GalNAc
In short: as §1

[3] = biological target: GlcNAc(b1-3)Gal(b1-4)GlcNAc(b1-3)GalNAc
In short: as §1

[4] = biological target: GlcNAc(b1-3)Gal(b1-4)GlcNAc(b1-3)[GlcNAc(b1-3)Gal(b1-4)GlcNAc(b1-3)]GalNAc
In short: as §1

[5] = biological target: GlcNAc(b1-3)Gal(b1-4)GlcNAc(b1-6)[Gal(b1-3)]GalNAc
In short: as §1

[6] = biological target: GlcNAc(b1-3)Gal(b1-4)GlcNAc(b1-6)[GlcNAc(b1-3)Gal(b1-3)]GalNAc
In short: as §1

[7] = biological target: GlcNAc(b1-3)Gal(b1-4)GlcNAc(b1-6)[GlcNAc(b1-3)]Gal(b1-4)GlcNAc
In short: as §1

GlcNAc(b1-3)GalNAc = biological target: GlcNAc(b1-3)GalNAc
In short: as §1

GlcNAc(b1-3)Man = biological target: GlcNAc(b1-3)Man
In short: as §1

[8] = biological target: GlcNAc(b1-3)[GlcNAc(b1-4)][GlcNAc(b1-6)]GlcNAc
In short: as §1

[9] = biological target: GlcNAc(b1-3)[GlcNAc(b1-6)]Gal(b1-4)GlcNAc
In short: as §1

[10] = biological target: GlcNAc(b1-3)[GlcNAc(b1-6)]GalNAc
In short: as §1

[11] = biological target: GlcNAc(b1-4)Gal(b1-4)GlcNAc
In short: as §1

GlcNAc(b1-4)GlcNAc = biological target: GlcNAc(b1-4)GlcNAc
In short: as §1

[12] = biological target: GlcNAc(b1-4)GlcNAc(b1-4)GlcNAc
In short: as §1

[13] = biological target: GlcNAc(b1-4)GlcNAc(b1-4)GlcNAc(b1-4)GlcNAc(b1-4)GlcNAc
In short: as §1

[14] = biological target: GlcNAc(b1-4)GlcNAc(b1-4)GlcNAc(b1-4)GlcNAc(b1-4)GlcNAc(b1-4)GlcNAc
In short: as §1

[15] = biological target: GlcNAc(b1-4)[GlcNAc(b1-6)]GalNAc
In short: as §1

[16] = biological target: GlcNAc(b1-6)Gal(b1-4)GlcNAc
In short: as §1

GlcNAc(b1-6)GalNAc = biological target: GlcNAc(b1-6)GalNAc
In short: as §1

[17] = biological target: GlcNAc6S(b1-3)Gal(b1-4)GlcNAc
In short: as §1

Kdn(a2-3)Gal(b1-3)GalNAc = biological target: Kdn(a2-3)Gal(b1-3)GalNAc
In short: as §1

Kdn(a2-3)Gal(b1-3)GlcNAc = biological target: Kdn(a2-3)Gal(b1-3)GlcNAc
In short: as §1

Kdn(a2-3)Gal(b1-4)Glc = biological target: Kdn(a2-3)Gal(b1-4)Glc
In short: as §1

Kdn(a2-3)Gal(b1-4)GlcNAc = biological target: Kdn(a2-3)Gal(b1-4)GlcNAc
In short: as §1

[18] = biological target: Kdn(a2-3)Gal(b1-4)[Fuc(a1-3)]GlcNAc
In short: as §1

Kdn(a2-6)Gal(b1-4)GlcNAc = biological target: Kdn(a2-6)Gal(b1-4)GlcNAc
In short: as §1

[19] = biological target: Man(a1-2)Man(a1-2)Man(a1-3)Man
In short: as §1

[20] = biological target: Man(a1-2)Man(a1-2)Man(a1-6)[Man(a1-3)]Man
In short: as §1

Man(a1-2)Man(a1-3)Man = biological target: Man(a1-2)Man(a1-3)Man
In short: as §1

[21] = biological target: Man(a1-2)Man(a1-3)[Man(a1-2)Man(a1-6)]Man
In short: as §1

[22] = biological target: Man(a1-2)Man(a1-3)[Man(a1-2)Man(a1-6)]Man(a1-6)[Man(a1-2)Man(a1-2)Man(a1-3)]Man
In short: as §1

[23] = biological target: Man(a1-2)Man(a1-3)[Man(a1-2)Man(a1-6)]Man(a1-6)[Man(a1-2)Man(a1-2)Man(a1-3)]Man(b1-4)GlcNAc(b1-4)GlcNAc
In short: as §1

[24] = biological target: Man(a1-2)Man(a1-3)[Man(a1-6)]Man(a1-6)[Man(a1-2)Man(a1-3)]Man(b1-4)GlcNAc(b1-4)GlcNAc
In short: as §1

[25] = biological target: Man(a1-2)Man(a1-6)[Man(a1-3)]Man(a1-6)[Man(a1-2)Man(a1-2)Man(a1-3)]Man
In short: as §1

[26] = biological target: Man(a1-2)Man(a1-6)[Man(a1-3)]Man(a1-6)[Man(a1-2)Man(a1-2)Man(a1-3)]Man(b1-4)GlcNAc(b1-4)GlcNAc
In short: as §1

Man(a1-3)[Man(a1-6)]Man = biological target: Man(a1-3)[Man(a1-6)]Man
In short: as §1

[27] = biological target: Man(a1-3)[Man(a1-6)]Man(a1-6)[Man(a1-2)Man(a1-3)]Man(b1-4)GlcNAc(b1-4)GlcNAc
In short: as §1

[28] = biological target: Man(a1-3)[Man(a1-6)]Man(a1-6)[Man(a1-3)]Man
In short: as §1

[29] = biological target: Man(a1-3)[Man(a1-6)]Man(a1-6)[Man(a1-3)]Man(b1-4)GlcNAc(b1-4)GlcNAc
In short: as §1

[30] = biological target: Man(a1-3)[Man(a1-6)]Man(b1-4)GlcNAc(b1-4)GlcNAc
In short: as §1

[31] = biological target: Man(a1-3)[Man(a1-6)]Man(b1-4)GlcNAc(b1-4)[Fuc(a1-6)]GlcNAc
In short: as §1

Man(a1-6)Man = biological target: Man(a1-6)Man
In short: as §1

Man(b1-4)GlcNAc = biological target: Man(b1-4)GlcNAc
In short: as §1

MurNAc(b1-4)GlcNAc = biological target: MurNAc(b1-4)GlcNAc
In short: as §1

B1: SRA-1 (Homo sapiens), P21757 (protein)
chain: MEQWDHFHNQQEDTDSCSESVKFDARSMTALLPPNPKNSPSLQEKLKSFKAALIALYLLVFAVLIPLIGIVAAQLLKWETKNCSVSSTNANDITQSLTGKGNDSEEEMRFQEVFMEHMSNMEKRIQHILDMEANLMDTEHFQNFSMTTDQRFNDILLQLSTLFSSVQGHGNAIDEISKSLISLNTTLLDLQLNIENLNGKIQENTFKQQEEISKLEERVYNVSAEIMAMKEEQVHLEQEIKGEVKVLNNITNDLRLKDWEHSQTLRNITLIQGPPGPPGEKGDRGPTGESGPRGFPGPIGPPGLKGDRGAIGFPGSRGLPGYAGRPGNSGPKGQKGEKGSGNTLTPFTKVRLVGGSGPHEGRVEILHSGQWGTICDDRWEVRVGQVVCRSLGYPGVQAVHKAAHFGQGTGPIWLNEVFCFGRESSIEECKIRQWGTRACSHSEDAGVTCTL
glycan array binding signal (z-score) [1]: -0.069
glycan array binding signal (z-score) [2]: 0.215
glycan array binding signal (z-score) [3]: -0.189
glycan array binding signal (z-score) [4]: -0.281
glycan array binding signal (z-score) [5]: -0.168
glycan array binding signal (z-score) [6]: 0.86
glycan array binding signal (z-score) [7]: 0.193
glycan array binding signal (z-score) (GlcNAc(b1-3)GalNAc): -0.23
glycan array binding signal (z-score) (GlcNAc(b1-3)Man): 0.353
glycan array binding signal (z-score) [8]: -0.168
glycan array binding signal (z-score) [9]: -0.521
glycan array binding signal (z-score) [10]: -0.134
glycan array binding signal (z-score) [11]: 0.193
glycan array binding signal (z-score) (GlcNAc(b1-4)GlcNAc): 0.287
glycan array binding signal (z-score) [12]: -0.361
glycan array binding signal (z-score) [13]: -0.077
glycan array binding signal (z-score) [14]: 0.272
glycan array binding signal (z-score) [15]: 0.201
glycan array binding signal (z-score) [16]: 0.773
glycan array binding signal (z-score) (GlcNAc(b1-6)GalNAc): 0.417
glycan array binding signal (z-score) [17]: 0.417
glycan array binding signal (z-score) (Kdn(a2-3)Gal(b1-3)GalNAc): -0.143
glycan array binding signal (z-score) (Kdn(a2-3)Gal(b1-3)GlcNAc): -0.381
glycan array binding signal (z-score) (Kdn(a2-3)Gal(b1-4)Glc): -0.175
glycan array binding signal (z-score) (Kdn(a2-3)Gal(b1-4)GlcNAc): -0.014
glycan array binding signal (z-score) [18]: 0.697
glycan array binding signal (z-score) (Kdn(a2-6)Gal(b1-4)GlcNAc): 0.148
glycan array binding signal (z-score) [19]: -0.235
glycan array binding signal (z-score) [20]: -0.193
glycan array binding signal (z-score) (Man(a1-2)Man(a1-3)Man): 0.271
glycan array binding signal (z-score) [21]: 0.398
glycan array binding signal (z-score) [22]: -0.682
glycan array binding signal (z-score) [23]: -0.331
glycan array binding signal (z-score) [24]: -0.281
glycan array binding signal (z-score) [25]: -0.352
glycan array binding signal (z-score) [26]: 0.208
glycan array binding signal (z-score) (Man(a1-3)[Man(a1-6)]Man): -0.005
glycan array binding signal (z-score) [27]: -0.383
glycan array binding signal (z-score) [28]: -0.213
glycan array binding signal (z-score) [29]: 0.287
glycan array binding signal (z-score) [30]: -0.245
glycan array binding signal (z-score) [31]: -0.293
glycan array binding signal (z-score) (Man(a1-6)Man): 0.123
glycan array binding signal (z-score) (Man(b1-4)GlcNAc): -0.472
glycan array binding signal (z-score) (MurNAc(b1-4)GlcNAc): -0.157
